Laboratory results: the supplement of paper PMC4466236
In all, about 33,000 sequences were measured (“E-score (dimensionless, -0.5 to 0.5)”: median about -0.058, highest 2% from about 0.35 on). Some of the results follow.

tested on: MvaT; experiment: PBM 8-mer E-score (mean of HK and ME arrays) (E-score (dimensionless, -0.5 to 0.5)); higher = stronger relative binding preference; most listed sequences are background and not binding sites
How it was run: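 Full-length P. aeruginosa MvaT carrying an N-terminal glutathione S-transferase tag was tested by protein binding microarray following a previously described protocol. Two universal double-stranded 60-mer arrays, ME and HK, were used, each with a constant 25-mer primer region and a variable 35-mer region covering all 8-mers. The rank-based E-score is the mean of the two arrays, parsed with a custom script. Its range runs from -0.5 to 0.5 for each 8-mer.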

Sequence | PBM 8-mer E-score
ATACAAAT | 0.35
GCCCCCGA | -0.384
ATTTCTTA | 0.256
ACTGTTGG | 0.0275
AGACGAAT | -0.128
CGATGAAG | -0.0628
AAGCATCG | -0.112
ATCTTCCG | -0.0945
ACCGATCT | -0.0769
TAATAGCA | 0.317
ATTTAGTG | 0.17
CCGCAATC | 0.0112
AGAGTCTC | 0.0521
CCTTAACA | 0.0962
AGGGGATA | -0.11
ATAGCACA | 0.00198
ACGGTTAC | -0.0438
CGTAAACG | -0.0778
CTTGGGAC | -0.104
ATGATATA | 0.262
CTACTCCC | -0.00922
AGGTGTAT | 0.0535
ATCGAGTG | -0.14
ACTTGCCG | -0.00427
GGAGCACC | -0.296

Sequence | PBM 8-mer E-score
AAGCTGAA | -0.0988
ATCAGGAC | 0.0315
AGGTTTCG | -0.156
AGTATGGC | 0.00878
CTGACAAC | -0.0243
AAGGTGCC | -0.22
ATCGCCGC | -0.0467
GTCCGCGA | -0.0617
CGACCACG | -0.21
CTGCAGCC | -0.148
GTTGATAA | 0.233
GGCCTCCA | -0.237
ACGGCTTC | -0.205
GAGAATGA | -0.0578
AATGCGCC | -0.0448
CCATTTTA | -0.0521
GGAAGGCA | -0.221
CGTGGCCA | -0.293
ATAGTAGC | 0.154
AACTTTCT | 0.22
ATTTCTCC | 0.0744
GGACGGCA | -0.204
CGGATCGC | -0.251
GTGTGACA | 0.000184
CGATGACA | -0.000569

Sequence | PBM 8-mer E-score
CTGGCGGA | -0.167
AGGATGTC | -0.16
GAAACATA | 0.343
AGTTCAGA | 0.0962
CGCTCACA | -0.125
AGGACCTG | -0.178
ATCAGCTA | -0.0431
CTAGCCCA | -0.248
CCATGAAG | -0.154
ATAGACGA | 0.0286
AAGTGAAA | 0.163
CTACAACA | 0.244
ACTATTGC | 0.202
GCGCACTA | 0.048
GCGCGCCC | -0.28
GAGGGAAC | -0.291
GAGGTAAA | 0.0655
ACGGTATA | 0.175
GGAGAGCC | -0.313
AACGTGTC | -0.117
TCAGGAGA | -0.0641
CCGTAACG | -0.103
GGAACAAC | 4.61e-05
CCGCTCAC | -0.256
ATCCTGCC | -0.264

Sequence | PBM 8-mer E-score
ACGTTGGG | -0.0365
GCTTACAC | -0.136
ACTTAAGA | 0.225
CCGTCTGA | -0.0783
CCGTTTGA | 0.0765
GTGCGGCA | -0.203
ACAATAGC | 0.202
GGTTGTCA | -0.0626
AGGACCTC | -0.306
AAGACTCT | -0.0622
TGCATAAA | 0.208
CCGACTTC | -0.0506
GCATTTGA | 0.0521
AGTTCCGA | 0.0562
ACTTCGTC | -0.167
ACGGGGTA | -0.0934
CGCGGCAC | -0.152
AAAATTCC | 0.141
CACGAAGC | -0.105
ACTTGCCT | 0.0341
GTTTCCCA | 0.0136
GATGCGAC | -0.266
ATGACAAC | 0.056
GCTCAACA | -0.0453
AAGCGACT | -0.167

Sequence | PBM 8-mer E-score
GAAACGTA | -0.0305
CCGAGGAC | -0.327
GAACAGCA | -0.137
ACAGTCGT | -0.175
GTGGCGAA | -0.0349
AACGTTGC | 0.0306
AGCAGCGA | 0.0043
ACGACATA | 0.11
CTTAATCA | 0.174
GTAAGGGA | 0.000975
AAACGGGT | 0.0831
GCAAACCC | 0.0106
CGCGAGTC | -0.189
CGAGTGTA | 0.0819
ACACGGAT | -0.0371
CCTATAGG | -0.183
CACCGCCC | -0.0502
CTTGCTGA | -0.116
ACAATACT | 0.223
AAGCTTCA | -0.0502
CTAGGACA | -0.162
TCACAACA | 0.133
GAATTTAA | 0.264
GTCGCCAA | -0.166
GATATTGA | 0.228

Sequence | PBM 8-mer E-score
TCGAGTCA | -0.118
TAGAAACA | 0.219
CATCTGTA | -0.0337
AGTGGCTC | -0.177
AAGAACTA | 0.208
AGGTACAG | -0.139
CACCAACA | 0.0857
CTACGCAG | -0.282
CGTCTGGC | -0.15
ATACACAA | 0.154
AAACGGGG | -0.0516
CCGGCAGC | -0.221
AGGCTCCG | -0.255
ATCGCAGC | -0.234
GCTGTAAA | 0.0774
ATTCGACA | 0.07
AGGACGGC | -0.3
AGCCGCGG | -0.191
GCTAGGCA | -0.187
ACACCTTC | -0.0944
GGGGGAGA | -0.213
CCAGCTGA | -0.106
CATAAAAC | 0.232
AGGAAGGA | -0.168
AACCCTTA | -0.0282

Sequence | PBM 8-mer E-score
TACAGCAA | 0.00971
CGGGTTCC | -0.15
AACTGAAC | 0.104
CTACCACA | 0.147
CATGGCGA | -0.15
ATGTTGGG | 0.105
ATATGACA | 0.211
CCGCCTGC | -0.18
CCACTCAA | 0.0518
TGACGTAA | 0.0689
AGGATTTG | -0.0256
CGCCTTGC | -0.254
ATTTAGGA | 0.165
AAGAGTCC | -0.0986
CAGGCACC | -0.285
GCCTCTGA | -0.299
ATAATGAA | 0.323
AATAATTC | 0.344
ATCCCTGC | -0.153
ACCCAGAA | 0.0295
AAATTAGG | 0.165
AGGACTAC | -0.159
